# According to the supplement of paper PMC8728848:
# The list shows a part of the results.
# Legend:
# Assay in all cases: glycan array binding signal (z-score within array); higher = stronger binding
# Conditions in all cases: glycan notation: IUPAC condensed, linker removed
# [1] = biological target: GlcNAc(a1-4)Gal(b1-3)[Fuc(a1-2)]Gal
# Procedure, shortened: (§1)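 From the Consortium for Functional Glycomics database, 3228 arrays were curated, keeping only those whose protein sequence was available. Binding is given as a within-array Z-score averaged across arrays sharing a protein sequence and across linkers. Negative Z-scores can be read as non-binding.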
# GlcNAc(b1-2)Fuc = biological target: GlcNAc(b1-2)Fuc
# Procedure, shortened: as §1
# GlcNAc(b1-2)Man = biological target: GlcNAc(b1-2)Man
# Procedure, shortened: as §1
# [2] = biological target: GlcNAc(b1-2)Man(a1-3)[GlcNAc(b1-2)Man(a1-6)]Man
# Procedure, shortened: as §1
# [3] = biological target: GlcNAc(b1-2)Man(a1-3)[GlcNAc(b1-2)Man(a1-6)]Man(b1-4)GlcNAc(b1-4)GlcNAc
# Procedure, shortened: as §1
# [4] = biological target: GlcNAc(b1-2)Man(a1-3)[GlcNAc(b1-2)Man(a1-6)]Man(b1-4)GlcNAc(b1-4)[Fuc(a1-6)]GlcNAc
# Procedure, shortened: as §1
# [5] = biological target: GlcNAc(b1-2)Man(a1-3)[GlcNAc(b1-2)Man(a1-6)][GlcNAc(b1-4)]Man(b1-4)GlcNAc(b1-4)GlcNAc
# Procedure, shortened: as §1
# [6] = biological target: GlcNAc(b1-2)Man(a1-3)[Man(a1-3)[Man(a1-6)]Man(a1-6)][GlcNAc(b1-4)]Man(b1-4)GlcNAc(b1-4)GlcNAc
# Procedure, shortened: as §1
# [7] = biological target: GlcNAc(b1-2)[GlcNAc(b1-4)]Man(a1-3)[GlcNAc(b1-2)Man(a1-6)][GlcNAc(b1-4)]Man(b1-4)GlcNAc(b1-4)GlcNAc
# Procedure, shortened: as §1
# [8] = biological target: GlcNAc(b1-2)[GlcNAc(b1-4)]Man(a1-3)[GlcNAc(b1-2)[GlcNAc(b1-4)][GlcNAc(b1-6)]Man(a1-6)][GlcNAc(b1-4)]Man(b1-4)GlcNAc(b1-4)GlcNAc
# Procedure, shortened: as §1
# [9] = biological target: GlcNAc(b1-2)[GlcNAc(b1-4)]Man(a1-3)[GlcNAc(b1-2)[GlcNAc(b1-6)]Man(a1-6)]Man(b1-4)GlcNAc(b1-4)GlcNAc
# Procedure, shortened: as §1
# GlcNAc(b1-3)Fuc = biological target: GlcNAc(b1-3)Fuc
# Procedure, shortened: as §1
# GlcNAc(b1-3)Gal(b1-4)Glc = biological target: GlcNAc(b1-3)Gal(b1-4)Glc
# Procedure, shortened: as §1
# [10] = biological target: GlcNAc(b1-3)[GlcNAc(b1-6)]Gal
# Procedure, shortened: as §1
# [11] = biological target: GlcNAc(b1-3)[GlcNAc(b1-6)]Gal(b1-4)GlcNAc(b1-3)[GlcNAc(b1-6)]Gal(b1-4)GlcNAc(b1-3)Gal(b1-4)Glc
# Procedure, shortened: as §1
# GlcNAc(b1-4)Fuc = biological target: GlcNAc(b1-4)Fuc
# Procedure, shortened: as §1
# GlcNAc(b1-4)GlcNAc = biological target: GlcNAc(b1-4)GlcNAc
# Procedure, shortened: as §1
# [12] = biological target: GlcNAc(b1-4)GlcNAc(b1-4)GlcNAc
# Procedure, shortened: as §1
# [13] = biological target: GlcNAc(b1-4)GlcNAc(b1-4)GlcNAc(b1-4)GlcNAc
# Procedure, shortened: as §1
# [14] = biological target: GlcNAc(b1-4)GlcNAc(b1-4)GlcNAc(b1-4)GlcNAc(b1-4)GlcNAc
# Procedure, shortened: as §1
# [15] = biological target: GlcNAc(b1-4)GlcNAc(b1-4)GlcNAc(b1-4)GlcNAc(b1-4)GlcNAc(b1-4)GlcNAc
# Procedure, shortened: as §1
# [16] = biological target: GlcNAc(b1-4)GlcNAc(b1-4)GlcNAc(b1-4)GlcNAc(b1-4)GlcNAc(b1-4)GlcNAc(b1-4)GlcNAc
# Procedure, shortened: as §1
# [17] = biological target: GlcNAc(b1-4)GlcNAc(b1-4)GlcNAc(b1-4)GlcNAc(b1-4)GlcNAc(b1-4)GlcNAc(b1-4)GlcNAc(b1-4)GlcNAc
# Procedure, shortened: as §1
# [18] = biological target: HexA(a1-3)GalNAc4S(b1-4)GlcA(b1-3)GalNAc4S
# Procedure, shortened: as §1
# [19] = biological target: HexA(a1-3)GalNAc4S(b1-4)GlcA(b1-3)GalNAc4S(b1-4)GlcA(b1-3)GalNAc4S(b1-4)GlcA(b1-3)GalNAc4S(b1-4)GlcA(b1-3)GalNAc4S(b1-4)GlcA(b1-3)GalNAc4S(b1-4)GlcA(b1-3)GalNAc4S
# Procedure, shortened: as §1
# [20] = biological target: HexA(a1-3)GalNAc4S(b1-4)GlcA(b1-3)GalNAc4S(b1-4)GlcA(b1-3)GalNAc4S(b1-4)GlcA(b1-3)GalNAc4S(b1-4)GlcA(b1-3)GalNAc4S(b1-4)GlcA(b1-3)GalNAc4S(b1-4)GlcA(b1-3)GalNAc4S(b1-4)GlcA(b1-3)GalNAc4S
# Procedure, shortened: as §1
# [21] = biological target: HexA(a1-3)GalNAc4S(b1-4)IdoA(a1-3)GalNAc4S
# Procedure, shortened: as §1
# [22] = biological target: HexA(a1-3)GalNAc4S(b1-4)IdoA(a1-3)GalNAc4S(b1-4)IdoA(a1-3)GalNAc4S(b1-4)IdoA(a1-3)GalNAc4S(b1-4)IdoA(a1-3)GalNAc4S(b1-4)IdoA(a1-3)GalNAc4S(b1-4)IdoA(a1-3)GalNAc4S
# Procedure, shortened: as §1
# [23] = biological target: HexA(a1-3)GalNAc4S(b1-4)IdoA(a1-3)GalNAc4S(b1-4)IdoA(a1-3)GalNAc4S(b1-4)IdoA(a1-3)GalNAc4S(b1-4)IdoA(a1-3)GalNAc4S(b1-4)IdoA(a1-3)GalNAc4S(b1-4)IdoA(a1-3)GalNAc4S(b1-4)IdoA(a1-3)GalNAc4S
# Procedure, shortened: as §1
# [24] = biological target: HexA(a1-3)GalNAc6S(b1-4)GlcA(b1-3)GalNAc6S
# Procedure, shortened: as §1
# [25] = biological target: HexA(a1-3)GalNAc6S(b1-4)GlcA(b1-3)GalNAc6S(b1-4)GlcA(b1-3)GalNAc6S(b1-4)GlcA(b1-3)GalNAc6S(b1-4)GlcA(b1-3)GalNAc6S(b1-4)GlcA(b1-3)GalNAc6S(b1-4)GlcA(b1-3)GalNAc6S
# Procedure, shortened: as §1
# [26] = biological target: HexA(a1-3)GalNAc6S(b1-4)GlcA(b1-3)GalNAc6S(b1-4)GlcA(b1-3)GalNAc6S(b1-4)GlcA(b1-3)GalNAc6S(b1-4)GlcA(b1-3)GalNAc6S(b1-4)GlcA(b1-3)GalNAc6S(b1-4)GlcA(b1-3)GalNAc6S(b1-4)GlcA(b1-3)GalNAc6S
# Procedure, shortened: as §1
# HexA2S(a1-4)GlcNS6S = biological target: HexA2S(a1-4)GlcNS6S
# Procedure, shortened: as §1
# [27] = biological target: HexA2S(a1-4)GlcNS6S(a1-4)IdoA2S(a1-4)GlcNS6S(a1-4)IdoA2S(a1-4)GlcNS6S(a1-4)IdoA2S(a1-4)GlcNS6S(a1-4)IdoA2S(a1-4)GlcNS6S(a1-4)IdoA2S(a1-4)GlcNS6S(a1-4)IdoA2S(a1-4)GlcNS6S(a1-4)IdoA2S(a1-4)GlcNS6S(a1-4)IdoA2S
# Procedure, shortened: as §1
# [28] = biological target: HexA6S(a1-4)GlcNS6S(a1-4)IdoA2S(a1-4)GlcNS6S
# Procedure, shortened: as §1
# [29] = biological target: HexA6S(a1-4)GlcNS6S(a1-4)IdoA2S(a1-4)GlcNS6S(a1-4)IdoA2S(a1-4)GlcNS6S(a1-4)IdoA2S(a1-4)GlcNS6S(a1-4)IdoA2S(a1-4)GlcNS6S(a1-4)IdoA2S(a1-4)GlcNS6S(a1-4)IdoA2S(a1-4)GlcNS6S
# Procedure, shortened: as §1
# [30] = biological target: Kdn(a2-3)Gal(b1-3)GalNAc(b1-4)[Kdn(a2-3)]Gal(b1-4)Glc
# Procedure, shortened: as §1
# [31] = biological target: Kdn(a2-3)Gal(b1-3)GlcNAc(b1-3)Gal(b1-4)Glc
# Procedure, shortened: as §1
# Kdn(a2-3)Gal(b1-4)Glc = biological target: Kdn(a2-3)Gal(b1-4)Glc
# Procedure, shortened: as §1
# [32] = biological target: Kdn(a2-3)Gal(b1-4)[Fuc(a1-3)]GlcNAc(b1-3)Gal
# Procedure, shortened: as §1
# [33] = biological target: Kdn(a2-3)Gal(b1-4)[Fuc(a1-3)]GlcNAc(b1-3)Gal(b1-4)Glc
# Procedure, shortened: as §1
# [34] = biological target: Kdn(a2-3)Gal(b1-4)[Rha(a1-3)]GlcNAc(b1-3)Gal(b1-4)Glc
# Procedure, shortened: as §1
# [35] = biological target: Kdn(a2-3)[GalNAc(b1-4)]Gal(b1-4)Glc
# Procedure, shortened: as §1
# Kdn(a2-6)Gal = biological target: Kdn(a2-6)Gal
# Procedure, shortened: as §1
# Man(a1-2)Man = biological target: Man(a1-2)Man
# Procedure, shortened: as §1
binder,measurement,setting,value
"ZG16p (Homo sapiens), O60844 (protein) ARSSSYSGEYGGGGGKRFSHSGNQLDGPITALRVRVNTYYIVGLQVRYGKVWSDYVGGRNGDLEEIFLHPGESVIQVSGKYKWYLKKLLFVTDKGRYLSFGKDSGTSFNAVPLHPNTVLRFISGRSGSLIDAIGLHWDVYPSSCSRC",glycan array binding signal (z-score),[1],-0.255
same,glycan array binding signal (z-score),GlcNAc(b1-2)Fuc,0.385
same,glycan array binding signal (z-score),GlcNAc(b1-2)Man,0.532
same,glycan array binding signal (z-score),[2],0.672
same,glycan array binding signal (z-score),[3],-0.353
same,glycan array binding signal (z-score),[4],-0.228
same,glycan array binding signal (z-score),[5],-0.365
same,glycan array binding signal (z-score),[6],-0.362
same,glycan array binding signal (z-score),[7],-0.42
same,glycan array binding signal (z-score),[8],-0.42
same,glycan array binding signal (z-score),[9],-0.373
same,glycan array binding signal (z-score),GlcNAc(b1-3)Fuc,0.039
same,glycan array binding signal (z-score),GlcNAc(b1-3)Gal(b1-4)Glc,-0.328
same,glycan array binding signal (z-score),[10],0.435
same,glycan array binding signal (z-score),[11],-0.328
same,glycan array binding signal (z-score),GlcNAc(b1-4)Fuc,1.05
same,glycan array binding signal (z-score),GlcNAc(b1-4)GlcNAc,-0.328
same,glycan array binding signal (z-score),[12],-0.273
same,glycan array binding signal (z-score),[13],-0.23
same,glycan array binding signal (z-score),[14],-0.328
same,glycan array binding signal (z-score),[15],-0.328
same,glycan array binding signal (z-score),[16],-0.328
same,glycan array binding signal (z-score),[17],-0.323
same,glycan array binding signal (z-score),[18],-0.328
same,glycan array binding signal (z-score),[19],-0.328
same,glycan array binding signal (z-score),[20],-0.483
same,glycan array binding signal (z-score),[21],-0.305
same,glycan array binding signal (z-score),[22],-0.328
same,glycan array binding signal (z-score),[23],-0.003
same,glycan array binding signal (z-score),[24],-0.325
same,glycan array binding signal (z-score),[25],-0.328
same,glycan array binding signal (z-score),[26],-0.512
same,glycan array binding signal (z-score),HexA2S(a1-4)GlcNS6S,-0.011
same,glycan array binding signal (z-score),[27],0.297
same,glycan array binding signal (z-score),[28],-0.206
same,glycan array binding signal (z-score),[29],-0.017
same,glycan array binding signal (z-score),[30],-0.328
same,glycan array binding signal (z-score),[31],-0.328
same,glycan array binding signal (z-score),Kdn(a2-3)Gal(b1-4)Glc,-0.316
same,glycan array binding signal (z-score),[32],-0.328
same,glycan array binding signal (z-score),[33],-0.328
same,glycan array binding signal (z-score),[34],-0.328
same,glycan array binding signal (z-score),[35],-0.328
same,glycan array binding signal (z-score),Kdn(a2-6)Gal,-0.328
same,glycan array binding signal (z-score),Man(a1-2)Man,0.488
